Experimental data from PubChem BioAssay (NCATS).
Where “and” joins values, the source holds several entries; their conditions need not be identical. Equal values may be shown once. The inconclusive results got no clear call from the source; some entries with a clear call stand among them for comparison. No potency is given beside an inconclusive call; the fits are too rough. Calls of active or inactive are those of the source. The call rests on the fitted dose curve; in most records, active means well fitted cell-killing curve with a large enough effect; inconclusive means small, poorly fitted or top-dose-only effect, or effect the other way; inactive means no such curve, though single readings can be large or run the other way.

Experiment: Viability qHTS for spleen associated tyrosine kinase inhibitor (SYKi) drug resistant MV4-11 cells (AID 1963824); further: nearly all actives have a fitted effect of over 35% in size
Conditions: SYKi-resistant MV4-11 viability, CellTiter-Glo, 72 h; series mostly up to 45 µM
In short: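 SYK inhibitor-resistant MV4-11 AML cells, 500 per well, added to predispensed compounds and incubated 72 hr at 37 C, 5% CO2. Viability measured by CellTiter-Glo luminescence after 10 min at room temperature.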
Potency means the concentration at half of the fitted maximal effect; tags describe the fitted curve by direction and shape.

| Compound | Potency | viability, % of control |
| --- | --- | --- |
| COc1ccc2cc1Oc1ccc(cc1)CC1c3cc(c(OC)cc3CCN1C)Oc1c(OC)c(OC)c(OC)c3c1C(C2)N(C)CC3 (stereo not given) | active: 10 µM | – |
| Cc1occc(=O)c1O[C@@H]1O[C@H](CO)[C@@H](O)[C@H](O)[C@H]1O | inactive | – |
| CN[C@@H]1[C@@H](O)[C@@H](O[C@@H]2[C@@H](O)[C@H](O[C@H]3O[C@@H]([C@@H](C)NC)CC[C@H]3N)[C@@H](N)C[C@H]2N)OC[C@]1(C)O | inactive | – |
| CC1(C)C(=O)CCC2(C)C1C(O)C=C1COC(=O)C12O (stereo not given) | inactive | – |
| CN(C)CC1CCn2cc(c3ccccc32)C2=C(C(=O)NC2=O)c2cn(c3ccccc23)CCO1 (stereo not given) | active: 0.411 µM | – |
| CCOc1ccc(-c2nn3ncccc3c2-c2ccc(S(C)(=O)=O)cc2)cc1 | inconclusive [cytotoxic, partial curve] | – |
| Cn1cc(S(C)=O)c(=O)c2ccc(F)cc21 (stereo not given) | inconclusive [cytotoxic, single point] | – |
| Cn1ncc(Cl)c1-c1cc(C(=O)N[C@H](CN)Cc2ccc(F)c(F)c2)sc1Cl | active: 11.6 µM and active: 4.68 µM | – |
| CC(C)c1ccc2c(c1)CCC1[C@](C)(C(=O)O)CCC[C@]21C (stereo not given in full) | inconclusive [cytotoxic, partial curve] | – |
| COC(=O)C1=C2Nc3ccccc3C23CCN2CCCC(C(C)O)(C1)C23 (stereo not given) | inconclusive [cytotoxic, partial curve, poor fit] | – |
| O=C(CCNC(=O)c1ccc(OC(F)(F)F)cc1)N[C@@H]1CCCc2ccccc21 | inconclusive [cytotoxic, full curve] | – |
| CC(=O)O[C@H]1C[C@@](O)(C(C)C)[C@@H]2[C@@H](OC(=O)c3ccc(O)cc3)CC(C)=CC[C@@]12C | inconclusive [cytotoxic, partial curve] | – |
| Cc1cc(CCCOc2c(C)cc(-c3noc(C(F)(F)F)n3)cc2C)on1 | inconclusive [cytotoxic, single point] | – |
| CCCC(=O)NCCc1csc(-c2ccc(Cl)cc2)n1 | inconclusive [cytotoxic, partial curve, poor fit] | – |
| O=C(NCc1ccc(OC(F)(F)F)cc1)C1c2c(F)cccc2C(=O)N1CCc1ccccn1 (stereo not given) | inconclusive [cytotoxic, partial curve] | – |
| CC(=O)c1c(C)cc(O)cc1O[C@@H]1O[C@H](CO)[C@@H](O)[C@H](O)[C@H]1O | inconclusive [cytotoxic, full curve, poor fit] | – |
| NC1(c2ccc(NC(=O)c3ccnc(-c4cc(C(=O)O)ccn4)c3)cc2)CC1 | inconclusive [cytotoxic, partial curve] | – |
| CC1(c2ccccc2)OC(C(=O)O)=CC1=O (stereo not given) | inactive | – |
| C=C1/C(=C/C=C2\CCC[C@]3(C)[C@@H]([C@H](C)CC[C@@H](O)C(C)(C)O)CC[C@@H]23)C[C@@H](O)C[C@@H]1O | inconclusive [cytotoxic, full curve, poor fit] | – |
| CC1=C(CO)CC(C(C)C2CCC3C4CC=C5CC(OC6OC(COC7OC(CO)C(O)C(O)C7O)C(O)C(O)C6O)CC(O)C5(C)C4CCC23C)OC1=O (stereo not given) | inconclusive [cytotoxic, partial curve, poor fit] | – |
| O=C(Nc1ccccc1C(=O)Nc1ccc(CCO)cc1)c1ccc([N+](=O)[O-])cc1 | inconclusive [cytotoxic, partial curve, poor fit] | – |
| CC(C)(C)C(=O)OCOC(=O)[C@@H]1N2C(=O)[C@@H](NC(=O)[C@H](N)c3ccccc3)[C@H]2SC1(C)C | inconclusive [cytotoxic, partial curve] | – |
| C=CC(C)(C)c1[nH]c2cc3c(cc2c1CC1NC(=O)C2=CCCN2C1=O)C=CC(C)(C)O3 (stereo not given) | inconclusive [cytotoxic, single point] | – |
| CCNC(=O)[C@@H]1CCCN1C(=O)[C@H](CCCN=C(N)N)NC(=O)[C@H](CC(C)C)NC(=O)[C@@H](C)NC(=O)[C@H](Cc1ccc(O)cc1)NC(=O)[C@H](CO)NC(=O)[C@H](Cc1c[nH]c2ccccc12)NC(=O)[C@H](Cc1cnc[nH]1)NC(=O)[C@@H]1CCC(=O)N1 | inactive | – |
| C=C(C)[C@@H](C)[C@H]1O[C@]23C[C@]4(CO2)C(CCC2[C@@]5(C)CC[C@H](O[C@@H]6OC[C@H](O)[C@H](O[C@@H]7O[C@H](CO)[C@@H](O)[C@H](O)[C@H]7O)[C@H]6O[C@@H]6O[C@@H](CO)[C@H](O)[C@H]6O)C(C)(C)C5CC[C@]24C)C3[C@@](C)(O)[C@@H]1OC(C)=O (stereo not given in full) | – | inactive: 92.6% [at 9.25 µM] |
